# In all, about 33,000 sequences were measured (“E-score (-0.5 to 0.5)”: median about -0.053, highest 2% from about 0.37 on). This is one part of the list.
# Target: Hap1 (UniProt P0CE41)
# Assay: PBM E-score (8-mer binding enrichment) (E-score (-0.5 to 0.5)); higher = stronger / more preferred TF binding; most listed sequences are background and not binding sites
# Conditions: protein concentration: 200 nM; construct: GST-DNA-binding domain
# Description: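 Universal 'all 10-mer' protein binding microarrays (Agilent AMADID 015681) probed with GST-tagged S. cerevisiae TFs (full-length or DBD) made by in vitro transcription/translation (PURExpress), about 100-200 nM. Bound TF was detected with fluorescent anti-GST. Each ungapped 8-mer (which stands for itself and its reverse complement) is scored by the PBM enrichment score (E-score), a modified Wilcoxon-Mann-Whitney statistic from -0.5 to +0.5, computed with the Universal PBM Analysis Suite. Scale: above 0.35 generally sequence-specific binding.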
# Chain of UniProt P0CE41 (P0CE41 whole entry): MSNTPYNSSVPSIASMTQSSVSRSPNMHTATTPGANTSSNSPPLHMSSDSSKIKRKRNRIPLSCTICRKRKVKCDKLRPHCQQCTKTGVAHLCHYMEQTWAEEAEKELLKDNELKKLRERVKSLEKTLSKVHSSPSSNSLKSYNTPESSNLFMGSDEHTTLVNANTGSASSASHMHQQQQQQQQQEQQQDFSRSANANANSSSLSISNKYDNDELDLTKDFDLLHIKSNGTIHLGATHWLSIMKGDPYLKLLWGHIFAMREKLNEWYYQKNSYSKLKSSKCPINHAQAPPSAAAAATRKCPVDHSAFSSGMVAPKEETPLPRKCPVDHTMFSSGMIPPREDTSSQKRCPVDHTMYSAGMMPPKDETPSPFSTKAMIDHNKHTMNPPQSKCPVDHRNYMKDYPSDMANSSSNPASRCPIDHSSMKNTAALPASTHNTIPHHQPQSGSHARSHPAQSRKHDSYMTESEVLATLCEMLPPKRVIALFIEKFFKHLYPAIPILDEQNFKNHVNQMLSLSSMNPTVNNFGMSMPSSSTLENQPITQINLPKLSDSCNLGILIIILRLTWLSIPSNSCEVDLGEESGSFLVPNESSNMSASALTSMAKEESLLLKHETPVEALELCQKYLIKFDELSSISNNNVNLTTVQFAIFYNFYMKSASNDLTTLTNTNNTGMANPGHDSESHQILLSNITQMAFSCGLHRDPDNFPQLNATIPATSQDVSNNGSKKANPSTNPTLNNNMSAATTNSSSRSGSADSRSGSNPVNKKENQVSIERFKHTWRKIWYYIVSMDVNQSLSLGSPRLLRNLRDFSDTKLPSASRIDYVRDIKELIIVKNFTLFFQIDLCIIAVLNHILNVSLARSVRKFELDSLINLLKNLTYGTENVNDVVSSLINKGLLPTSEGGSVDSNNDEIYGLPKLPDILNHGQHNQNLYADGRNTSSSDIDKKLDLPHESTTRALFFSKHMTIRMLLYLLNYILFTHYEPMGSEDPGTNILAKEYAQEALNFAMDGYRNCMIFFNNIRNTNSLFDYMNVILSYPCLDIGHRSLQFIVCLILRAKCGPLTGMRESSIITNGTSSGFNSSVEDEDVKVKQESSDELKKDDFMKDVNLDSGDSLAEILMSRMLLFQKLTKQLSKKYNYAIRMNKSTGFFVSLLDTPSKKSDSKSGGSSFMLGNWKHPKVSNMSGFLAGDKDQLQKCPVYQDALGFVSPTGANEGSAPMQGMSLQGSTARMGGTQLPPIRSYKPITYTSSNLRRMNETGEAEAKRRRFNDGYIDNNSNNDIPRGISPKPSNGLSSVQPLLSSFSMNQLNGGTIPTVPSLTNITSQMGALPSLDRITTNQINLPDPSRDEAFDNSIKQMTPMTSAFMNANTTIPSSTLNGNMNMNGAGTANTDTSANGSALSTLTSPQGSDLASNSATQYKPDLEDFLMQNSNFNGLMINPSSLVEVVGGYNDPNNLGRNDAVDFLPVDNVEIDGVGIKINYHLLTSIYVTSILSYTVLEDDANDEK
row,Sequence,PBM E-score
1,CATTATCG,0.0604
2,ATCGGTCA,0.318
3,GGCATCAC,-0.021
4,GGTATCAC,0.0218
5,GTACAGCA,-0.106
6,ATACACAT,-0.215
7,ACAGATAC,0.0656
8,AGGTTTTC,-0.031
9,AGCCTAGG,-0.101
10,ACCTTAAA,-0.0134
11,AATTCGGT,0.188
12,GTCACCTA,-0.339
13,CTGTATAC,-0.27
14,GTCAGTCA,-0.172
15,ACTTAATC,-0.129
16,ACGATTGC,-0.0367
17,CTGCACCC,0.0641
18,ATGACGGC,0.0742
19,CGAGGAAA,0.0529
20,CTATTTTC,0.0335
21,GCGCTGAC,-0.021
22,CATATACA,-0.114
23,CTAGGTAC,-0.22
24,ACCGAGCT,0.294
25,GGATGCCC,-0.0964

row,Sequence,PBM E-score
1,ATGGTCAA,-0.23
2,CATAGTGA,-0.187
3,CGCAGACA,0.0126
4,CATCCCAG,-0.153
5,ATATTCCA,0.0228
6,AAGGTACA,-0.367
7,AAAAGTCA,-0.145
8,CGCTAAAG,0.165
9,ACTTGTGC,-0.0919
10,CAAAGAGA,-0.117
11,AAATCCTC,0.146
12,ATAACTCC,0.4
13,TCGTTGAA,-0.271
14,GCTGGCCC,0.0494
15,CTTTACAC,-0.0794
16,AGATATGC,-0.0775
17,AAGCGTCC,-0.241
18,CAGCAGAG,-0.284
19,AATGCATT,-0.0577
20,ATCCAACG,-0.159
21,GACGGGAC,0.126
22,GAATCCAA,0.0528
23,AAGGAAAC,-0.0226
24,ACCCAGTG,-0.0754
25,ACACACTA,-0.165

row,Sequence,PBM E-score
1,CGGAGAGA,0.333
2,CAGGATGG,-0.14
3,TAGCGATA,0.227
4,AGGCGAAA,-0.142
5,AACCATGA,0.04
6,CAGGTTAC,-0.139
7,ACCGTCGT,0.0494
8,CATCTTCC,0.0503
9,ACATTGGC,-0.123
10,CACCGGAC,0.417
11,CGGGCGAA,0.375
12,GGGCGAAC,0.145
13,GTCGGTTA,0.273
14,AAGCGAAC,-0.0502
15,CGCGCTCA,-0.142
16,ATACGACC,0.0708
17,CTGGGCTA,0.0256
18,CTATTTCA,-0.0144
19,CGCCAGGA,-0.177
20,ACGAGCAG,-0.188
21,AGCGACGG,0.204
22,AAATCATA,-0.0974
23,CGCCAGCG,-0.128
24,TTGTGAAA,-0.219
25,ACATGATC,-0.0374

row,Sequence,PBM E-score
1,AAGGTTTA,-0.217
2,ACATACCC,0.0317
3,GCAAAGGA,0.0254
4,ATCAACTA,-0.115
5,ATATTCCC,0.331
6,GAATTGCC,0.124
7,GACCAACC,-0.0052
8,AAAGCAGA,-0.0809
9,CAAGAGGA,-0.352
10,AAGGGTCA,-0.124
11,ATCTTCTA,-0.0493
12,ACGGAAGC,0.204
13,CACCCTGC,-0.101
14,GCATTCCC,0.125
15,TACCTCAA,-0.171
16,ATTATGCA,-0.13
17,AAAGCATG,-0.24
18,CCGGGAAA,0.338
19,GGGAGGGA,0.0508
20,CATAAATC,0.115
21,GATTTGGA,-0.136
22,GAGTAACA,0.0178
23,AGTGGACC,-0.0549
24,AATGGGGC,-0.188
25,ATGTCCGA,0.463

row,Sequence,PBM E-score
1,CGATTTAA,0.0314
2,CATTAAAC,-0.163
3,CTGTAACC,0.125
4,CAGGGATG,-0.0552
5,GCTCTCCC,-0.09
6,AAAATATT,-0.0249
7,TGCAAACA,-0.391
8,CGAATCGA,0.105
9,ACTAGGCG,-0.0773
10,GTTGTAGA,-0.159
11,CGTTGCTC,0.0464
12,ATCCCGCG,0.299
13,ACGATACC,0.179
14,CGTGTCTC,-0.172
15,AAGCAGAT,-0.037
16,TGCGATAA,0.201
17,CGTACACA,-0.203
18,ATGTCACC,-0.0329
19,ATGTAGAA,-0.0195
20,AAATCGCC,0.205
21,CAATCAAG,-0.163
22,CACAGTTA,-0.268
23,CGAAAAGA,0.214
24,CGTACGCC,0.172
25,GGGAGCTA,-0.0847

row,Sequence,PBM E-score
1,ATAAGGCA,-0.162
2,GAGCGTGA,-0.183
3,CTCGTGGA,-0.057
4,ATGAGTTG,0.0535
5,GAAAGCCA,-0.0997
6,CTGTCACA,-0.244
7,AAAAATTA,-0.029
8,ATGCGTGC,-0.133
9,GAATGTCC,0.159
10,AAGGATCA,-0.206
11,ATGAAGAC,-0.171
12,AACTTTAA,-0.0237
13,TAGCTGGA,-0.307
14,TGAGCTCA,-0.115
15,CATCAACA,0.101
16,CACATGTG,-0.198
17,AGACTGGA,0.0047
18,AATGTCCG,0.443
19,ATGATGTC,-0.00256
20,ACTGAAAT,-0.242
21,CCCTCAGG,-0.142
22,AGTTACTG,0.0112
23,AGAAATGG,-0.123
24,CCTGGCTA,-0.227
25,CACAAGGC,-0.151

row,Sequence,PBM E-score
1,CAGGAGTC,-0.0202
2,AACGTGGC,-0.246
3,ACTCGGGA,0.226
4,CGATCCGC,0.304
5,AGTATTAC,-0.0512
6,GACCTGCC,-0.107
7,CGGTAAAA,0.321
8,CACTAACG,-0.136
9,CCTTCCTC,-0.275
10,GCGTGACC,-0.0276
11,GAATATTC,0.117
12,AAGCCCAA,-0.122
13,CACAGAGA,-0.239
14,CAATCTAG,0.00122
15,CAACCGGA,0.316
16,CGTGTACA,-0.0917
17,CACTTTAA,0.00194
18,CCTAGACG,-0.242
19,CTAATTTA,-0.137
20,CACTGCAG,-0.103
21,AGATTCGC,-0.0351
22,ATACCACG,0.0652

# Source: the supplement of paper PMC3334620
